Reference: PubChem BioAssay AID1345083 (National Center for Advancing Translational Sciences (NCATS), 2018)
Hit rate of the full screen: of about 94,000 compounds, about 6,200 (6.6%) were called active. Inconclusive means that the source gave no clear call. Such entries were picked first, then a sample of the others. Calls come from the whole dose curve; as a rule, active = well fitted inhibition curve with a large enough effect; inconclusive = small, poorly fitted or top-dose-only effect; inactive = flat fitted curve, though single readings scatter. Potencies of inconclusive entries are doubtful fits and often do not repeat.

Test: Cytotoxic Profiling in HEK 293 Cell Line of Diverse Libraries Using Quantitative High-Throughput Screening; note: nearly all actives have a fitted effect of over 60% in size
Settings: HEK 293 viability, ATP luminescence (CellTiter-Glo), 48-72 h; activity change, negative = cytotoxicity: at 115 µM (top of the series) unless noted; series mostly up to 115 µM
Outline: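 Viability of HEK 293 cells, plated at 250 cells/well, was judged by cellular ATP after compound treatment for 48 or 72 hr. Luminescence was imaged 10 min after CellTiter-Glo addition at room temperature.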
% is set by controls: 0 for no effect and ±100 for the full control effect; potency is the fitted concentration of half-maximal effect; tags give direction and shape of the fitted curve.

Structure (SMILES) | Potency | activity change, negative = cytotoxicity | outcome
O=C(NCCc1ccccc1)c1ccc2nnc(-c3ccc(OC(F)(F)F)cc3)n2c1 | inconclusive: 50.1 µM [inhibitor, partial curve, poor fit] | – | –
N#Cc1ccc(CN2CCC3(CC2)NCc2ccccc2NC3=O)cc1 | inconclusive: 44.7 µM [inhibitor, partial curve, poor fit] | – | –
O=C(NCc1cccc(Cl)c1)C1CCc2nnc(-c3cccc(C(F)(F)F)c3)n21 (stereo not given) | inconclusive: 50.1 µM [inhibitor, partial curve, poor fit] | – | –
O=C1CN(Cc2ccc(Cl)cc2)CCN1c1ccc(Cl)nn1 | inconclusive: 39.8 µM [inhibitor, partial curve, poor fit] | – | –
CCCN(CC1CCOC1)S(=O)(=O)c1ccc2c(c1)CCCC2 (stereo not given) | inconclusive: 44.7 µM [inhibitor, partial curve, poor fit] | – | –
CCC(CC)NC(=O)[C@H]1CCC[C@H]1NC(=O)c1ccc(OC)cc1 | – | inactive: 1.76% | –
CN(C)c1ccc(C(=O)NCC2CCN(c3cc(-c4ccc(Cl)cc4)[nH]n3)CC2)cc1 | inconclusive: 28.2 µM [inhibitor, full curve] | – | –
c1ccc2sc([C@H]3CCN(C4CCC4)C3)nc2c1 | inconclusive: 158 µM [inhibitor, single point] | – | –
CCc1cccc(OCC(=O)c2ccc3c(c2)N(CCCC(=O)N2CCOCC2)C(=O)CO3)c1 | inconclusive: 79.4 µM [inhibitor, partial curve, poor fit] | – | –
Cc1ccc(OCC(=O)N2CCC3(CC2)CC(N2CCOCC2)CCO3)cc1 (stereo not given) | – | inactive: -0.809% | –
O=C(NC1CN(c2ccnc3ccnn23)C1)c1ccccc1 | inconclusive: 89.1 µM [inhibitor, single point] | – | –
CC(=O)c1c(C)nn(CC(=O)N2CCN(c3ccnc(C)c3)CC2)c1C | – | inactive: 4.3% | –
O=C(NC1CCCN(c2cc(-c3ccc(F)cc3)[nH]n2)C1)c1ccncc1 (stereo not given) | inconclusive: 100 µM [inhibitor, single point] | – | –
O=C(NC1CCN(Cc2cccc(-c3ccc(F)c(F)c3)c2)CC1)c1ccc(Cl)nc1 | inconclusive: 25.1 µM [inhibitor, full curve, poor fit] | – | –
Cn1cccc1CN1CCCC(C(=O)NCc2ccccc2)CCNC(=O)CC1 (stereo not given) | active: 79.4 µM | – | –
O=C(NC1CCCC1)N1CCN(c2ccc3nnc(C4CC4)n3n2)CC1 | inconclusive: 50.1 µM [inhibitor, partial curve, poor fit] | – | –
O=C1COC[C@H]([C@H](O)c2ccc(NC(=O)c3ccnc(Cl)c3)cc2)N1 | – | inactive: -14.8% [at 172 µM] | –
O=C(C1CCCC1)N1CCOc2ccc(CN3CCc4ccccc4C3)cc2C1 | inconclusive: 50.1 µM [inhibitor, partial curve, poor fit] | – | –
Cc1ccc(-c2cc3c(=O)n(CCNC(=O)c4ccc(F)cc4Cl)ccn3n2)cc1C | inconclusive: 28.2 µM [inhibitor, full curve, poor fit] | – | –
Cc1ccc(NC(=O)Nc2cccc(-c3ccc(N4CCOCC4)nn3)c2)cc1F | – | inactive: -25.6% | –
C[C@@H]1C(=O)O[C@H]2[C@H]1CC[C@@]1(C)Cc3sc(NC(=O)CCC(=O)O)nc3[C@@H](C)[C@H]21 | – | inactive: 1.45% [at 172 µM] | –
Cn1ncc2c(C(=O)NC3CCc4ccccc43)cc(-c3ccccc3C(F)(F)F)nc21 (stereo not given) | inconclusive: 22.4 µM [inhibitor, full curve, poor fit] | – | –
Cn1cc(CC(=O)N2CCCc3ncc(C(=O)NCc4cccs4)cc32)c2ccccc21 | inconclusive: 25.1 µM [inhibitor, full curve] | – | –
COc1ccc(-c2ccnc3nc(CCC4CCCC4)nn23)cc1OC | inconclusive: 50.1 µM [inhibitor, partial curve, poor fit] | – | –

Structure (SMILES) | Potency | activity change, negative = cytotoxicity | outcome
CCc1nc([C@H]2CN(C)C[C@@H]2C(=O)NCC23CCCN2CCC3)c(C)[nH]1 | inconclusive: 3.55 µM [inhibitor, full curve, poor fit] | – | –
CCOC(=O)C1CCN(Cc2ccccc2OCC(O)CN(C)C2CCCCC2)CC1 (stereo not given) | inconclusive: 31.6 µM [inhibitor, full curve] | – | –
CCCS(=O)(=O)N1CC(c2nc(-c3ccncc3)no2)C1 | – | inactive: -14.6% | –
COc1nc2c(cc1CNC(=O)C(C)(C)OC)C(=O)N(CCc1ccccn1)C2 | – | inactive: 1.25% | –
COc1ccccc1NC(=O)NC[C@H]1O[C@H](Cc2cc(-c3ccc(F)cc3)on2)CC[C@@H]1O | – | inactive: -25.3% | –
CCOc1ccccc1CN1CCC2(CCN(C(=O)NC3CCCC3)CC2)Oc2ccccc21 | inconclusive: 25.1 µM [inhibitor, full curve] | – | –
Cc1cccc(-c2nocc2CCC(=O)O)c1 | – | inactive: -2.3% | –
O=C(c1ccc2nccnc2c1)N1CCn2nc(Cc3ccccc3)cc2C1 | inconclusive: 35.5 µM [inhibitor, full curve] | – | –
CSCC[C@@H]1NC(=O)c2cc(NC(=O)c3ccc(-n4cnnn4)cc3)ccc2NC1=O | – | inactive: 6.14% | –
COc1ccc(C(=O)N2C[C@@H](Oc3cccnc3)C[C@H]2C(N)=O)c(OC)n1 | – | inactive: 1.2% | –
COC(=O)C1=C(C)N=C2SC=C(CC(=O)NCC3CCCO3)N2C1c1ccccc1C (stereo not given) | inconclusive: 56.2 µM [inhibitor, partial curve, poor fit] | – | –
Cn1cnc(S(=O)(=O)N[C@@H]2CCOC[C@H]2Oc2ccc(C(N)=O)cc2)c1 | – | inactive: 3.24% | –
COc1cccc(Cc2nc(C3CC(=O)N(Cc4ccccc4OC)C3)no2)c1 (stereo not given) | inconclusive: 89.1 µM [inhibitor, single point] | – | –
Cc1ccc(CNC(=O)CCC2CCN(S(=O)(=O)c3ccccc3)CC2)cc1 | – | inactive: -24.2% | –
CN(Cc1ccc(-n2cccn2)cc1)C(=O)c1ccccc1C1CCNC1 (stereo not given) | – | – | inactive
COc1ccccc1-c1cc2c(nc1-c1ccccc1)nc(C(=O)NC1CCN(C)CC1)n2C | active: 35.5 µM | – | –
O=C(c1ccc(F)cc1)N1CCC2(CN[S+](=O)([O-])c3cccnc3O2)C1 (stereo not given) | – | – | inactive
CCc1noc(-c2cn(C3CCN(C(=O)c4ccc(F)c(Cl)c4)C3)nn2)n1 (stereo not given) | inconclusive: 35.5 µM [inhibitor, partial curve] | – | –
NC1CCCN(Cc2cccc(OCCCn3ccnc3)c2)C1 (stereo not given) | inconclusive: 22.4 µM [inhibitor, single point] | – | –
CC(=O)Nc1cccc(-c2ccc3ncn(Cc4ccccn4)c(=O)c3n2)c1 | inconclusive: 79.4 µM [inhibitor, partial curve, poor fit] | – | –
CO[C@H]1C(=O)N(C2CCN(S(=O)(=O)c3ccccc3)CC2)[C@H]1c1ccncc1 | – | inactive: -0.806% | –
CCC(=O)N1CCC2(CC1)C(OC)C(=O)N2CC1CC1 (stereo not given) | – | inactive: -1.78% | –
COc1ccc(NC(=O)Nc2ccc(C)n(CC(=O)NCC(C)C)c2=O)cc1 | – | inactive: -29% | –
COc1ncccc1-c1cnc2[nH]cc(CC(=O)Nc3cc(C)nn3C)c2c1 | inconclusive: 100 µM [inhibitor, partial curve, poor fit] | – | –

Structure (SMILES) | Potency | activity change, negative = cytotoxicity | outcome
CN1C(=O)CCC2(CNC(=O)c3cccc4nccnc34)CCCC=C12 (stereo not given) | active: 79.4 µM | – | –
COCCN1C[C@H]2COc3ccccc3[C@H]2N(C(=O)CC(C)(C)C)CCC1=O | inconclusive: 39.8 µM [inhibitor, single point] | – | –
COc1ccccc1C(O)c1nc(Nc2ccc(Cl)cc2)n[nH]1 (stereo not given) | inconclusive: 89.1 µM [inhibitor, partial curve] | – | –
Cc1ccc(N2C[C@]34C=C[C@H](O3)C(C(=O)N(C)Cc3ccno3)C4C2=O)cc1C (stereo not given in full) | – | – | inactive
Cc1ccc(CCCN2CCCC(COc3ccccc3C(=O)NC(C)C)C2)o1 (stereo not given) | inconclusive: 89.1 µM [inhibitor, single point] | – | –
CCOCCn1c(=O)[nH]c2cc(C(=O)NCc3ccc(F)c(F)c3)ccc21 | – | inactive: -11.7% | –
C=CCn1c(-c2ccccc2Cl)cn2cc(C(=O)N3CCCC(O)C3)nc2c1=O (stereo not given) | – | inactive: 0.975% | –
Cc1nn2c(c1-c1ccccc1OCc1ccccc1)N(Cc1cccnc1)CCC2 | active: 63.1 µM | – | –
CN1CC(C(=O)NCc2ccccc2)NC1=O (stereo not given) | – | – | inactive [at 172 µM]
COc1ccc(C(=O)Nc2ccc3c(c2)CN(Cc2cccc(OC)c2OC)C(=O)CO3)cc1 | inconclusive: 44.7 µM [inhibitor, partial curve, poor fit] | – | –
CCC(=O)N1CCc2sc(C(=O)NCc3ccc(C)cc3)cc2C1 | inconclusive: 44.7 µM [inhibitor, partial curve, poor fit] | – | –
COCC(=O)N1CCC2(CC1)OC(=O)N(Cc1ccc(O)cc1)C2(C)c1ccccc1 (stereo not given) | – | – | inactive [at 172 µM]
CNC(=O)c1cc(C)nc2onc(C3CCN(C(=O)NC(C)C)CC3)c12 | – | inactive: 0.0999% | –
O=C1Cc2c(-c3ccccc3Cl)n[nH]c2CN1Cc1ccccc1F | inconclusive: 112 µM [inhibitor, partial curve, poor fit] | – | –
COc1cccc(-c2cccc(CN3CCCC3C(=O)N3CCN(C)CC3)c2)c1 (stereo not given) | – | inactive: -24.1% | –
CCCN(Cc1ccncc1)C(=O)c1cnc(-c2ccccn2)[nH]c1=O | inconclusive: 20 µM [inhibitor, full curve, poor fit] | – | –
Cc1cc(C)n(Cc2ccc(C(=O)N3CCC(c4noc(-c5cccnc5)n4)C3)o2)n1 (stereo not given) | – | inactive: -3.8% | –
Cc1noc(-c2ccccc2Cl)c1C(=O)NC(C)c1ccccc1 (stereo not given) | inconclusive: 89.1 µM [inhibitor, partial curve, poor fit] | – | –
COc1ccccc1-c1cccc(CN2CCCC(C(=O)NCc3cccc(Cl)c3)C2)c1 (stereo not given) | active: 14.1 µM | – | –
Cc1noc(C)c1-c1cc2cc(CO)oc2c(-c2ccc(F)c(Cl)c2)n1 | active: 50.1 µM | – | –
C#CCN(C)Cc1nc(C2(O)CCN(CCC(C)C)CC2)cs1 | – | inactive: -28.7% [at 172 µM] | –
COc1ccc(-c2cc(C(=O)NCc3c(C)cc(C)[nH]c3=O)c3c(c2)N(C)CCO3)cn1 | inconclusive: 56.2 µM [inhibitor, full curve, poor fit] | – | –
